Assay results as given in PubChem BioAssay (Tox21).
This list was built around the results that the source calls inconclusive (neither active nor inactive); the mix of calls is not that of the screen. For some assays here: No potency is given beside an inconclusive call; the fits are too rough. Activity calls are given as the source filed them. Unless noted, calls follow the shape of the dose curve; as a rule, active = well fitted curve in the direction sought with a large enough effect in the repeat runs; inconclusive = weak or mixed curves; inactive = no such curve, though single readings can be large; an effect the other way counts as inactive or inconclusive.

Legend:
[1] = biological target: Peroxisome proliferator-activated receptor gamma (Homo sapiens) (UniProt P37231); test: qHTS assay to identify small molecule antagonists of the peroxisome proliferator-activated receptor gamma (PPARg) signaling pathway (AID 743191; calls by dose curve; also: nearly all actives have a fitted effect of over 30% in size; also: potency is read from the fitted curve at half-maximal effect); settings: HEK293H PPARg-UAS-bla, beta-lactamase ratio, antagonist, 17 h; ratio activity, negative = inhibition: at 62.6 µM (top of the series) unless noted
In short: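 GeneBLAzer PPARg UAS-bla HEK293H cells, 5 h post-plating, exposed to compounds 17 h at 37C. LiveBLAzer B/G FRET substrate added for 1 h at room temperature; beta-lactamase reporter read by fluorescence intensity.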

[2] = qHTS assay to identify small molecule antagonists of the peroxisome proliferator-activated receptor gamma (PPARg) signaling pathway - cell viability counter screen (AID 743194); settings: PPARg-bla HEK293H viability, CellTiter-Glo luminescence, 17 h; Potency: co-treated with 50 nM rosiglitazone unless noted; activity change, negative = cytotoxicity: at 62.6 µM (top of the series), co-treated with 50 nM rosiglitazone unless noted; also: nearly all actives have a fitted effect of over 55% in size; also: potency is read from the fitted curve at half-maximal effect
In short: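 Cytotoxicity counter screen in PPARg-bla HEK293H cells, same wells as reporter assay. Compounds plus 50 nM rosiglitazone (final) for 17 h at 37 C, then viability read by CellTiter-Glo luminescence.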

[3] = qHTS assay for small molecule agonists of the antioxidant response element (ARE) signaling pathway (AID 743202; active = well fitted activation curve with a large enough effect in the signal ratio in the repeat runs, not every such curve was filed as active; inconclusive = weak or mixed curves, or effect the other way; inactive = no such curve, though single readings can be large or run the other way; the % refers to the signal ratio; also: potency is read from the fitted curve at half-maximal effect); settings: HepG2 ARE-bla reporter, beta-lactamase FRET, 16 h; activation: at 73.3 µM (top of the series) unless noted
In short: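 Agonist mode reporter screen: HepG2 cells with ARE-controlled beta-lactamase are incubated with test compounds for 16 h at 37 C, and beta-lactamase activity is measured as fluorescence of cleaved B/G FRET substrate.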

[4] = qHTS assay to identify small molecule antagonists of the peroxisome proliferator-activated receptor delta (PPARd) signaling pathway - cell viability counter screen (AID 743213); settings: PPARd-bla HEK293H viability, CellTiter-Glo luminescence, 17 h; viability change, negative = cytotoxic: at 62 µM (top of the series) unless noted; also: potency is read from the fitted curve at half-maximal effect; nearly all actives have a fitted effect of over 50% in size
In short: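 In this counter screen, HEK293H cells carrying a UAS-beta-lactamase reporter are co-treated with test compounds and 300 nM L165041 (final) for 17 h at 37 C; cell viability is quantified by CellTiter-Glo luminescence.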

[5] = biological target: Peroxisome proliferator-activated receptor delta (Homo sapiens) (UniProt Q03181); test: qHTS assay to identify small molecule agonists of the peroxisome proliferator-activated receptor delta (PPARd) signaling pathway (AID 743212; calls by dose curve; also: % is scaled to controls: 0 for no effect and ±100 for the full control effect); settings: HEK293H PPARd-UAS-bla, beta-lactamase FRET ratio, 17 h; activation: at 62.6 µM (top of the series) unless noted
In short: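 Quantitative high-throughput agonist screen in a HEK293H beta-lactamase reporter line under UAS control. Compounds in DMSO, at 37 C. Fluorescence read after 2 h with FRET substrate at room temperature.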

[6] = qHTS assay to identify small molecule agonists of the farnesoid-X-receptor (FXR) signaling pathway - cell viability counter screen (AID 743218); settings: FXR-bla HEK293T viability, CellTiter-Glo luminescence, 16 h; viability change, negative = cytotoxic: at 62.6 µM (top of the series) unless noted; also: nearly all actives have a fitted effect of over 45% in size; also: potency is read from the fitted curve at half-maximal effect
In short: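 Parallel cytotoxicity test: compound-treated (16 h, 37 C) HEK 293T FXR-bla reporter cells were lysed with CellTiter-Glo and luminescence recorded.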

[7] = biological target: Bile acid receptor (Homo sapiens) (UniProt Q96RI1); test: qHTS assay to identify small molecule antagonists of the farnesoid-X-receptor (FXR) signaling pathway (AID 743217; active = well fitted inhibition curve with a large enough effect in the signal ratio in the repeat runs, not every such curve was filed as active; inconclusive = weak or mixed curves, or effect the other way; inactive = no such curve, though single readings can be large or run the other way; the % refers to the signal ratio; also: % is scaled to controls: 0 for no effect and ±100 for the full control effect); settings: HEK293T FXR-UAS-bla, beta-lactamase ratio, CDCA-stimulated, 16 h; activity change, negative = inhibition: at 62.6 µM (top of the series) unless noted
In short: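 GeneBLAzer FXR-UAS-bla HEK 293T, CDCA-stimulated (50 uM final). Compound treatment 16 h, 37 °C. Detection: beta-lactamase cleavage of B/G FRET substrate, fluorescence.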

[8] = biological target: Bile acid receptor (Homo sapiens) (UniProt Q96RI1); test: qHTS assay to identify small molecule agonists of the farnesoid-X-receptor (FXR) signaling pathway (AID 743220; active = well fitted activation curve with a large enough effect in the signal ratio in the repeat runs, not every such curve was filed as active; inconclusive = weak or mixed curves, or effect the other way; the % refers to the signal ratio; also: % is scaled to controls: 0 for no effect and ±100 for the full control effect); settings: HEK293T FXR-UAS-bla, beta-lactamase FRET ratio, 16 h; activation: at 62.6 µM (top of the series) unless noted
In short: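 Beta-lactamase reporter under UAS control in GeneBLAzer FXR HEK 293T cells (5000/well) measured with LiveBLAzer FRET substrate after 2 h at room temperature. Compound exposure lasted 16 h at 37C.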

[9] = biological target: Vitamin D3 receptor (Homo sapiens) (UniProt P11473); test: qHTS assay to identify small molecule agonists of the vitamin D receptor (VDR) signaling pathway (AID 743222; calls by dose curve; also: % is scaled to controls: 0 for no effect and ±100 for the full control effect); settings: HEK293T VDR-UAS-bla, beta-lactamase FRET ratio, 16 h; activation: at 63.5 µM (top of the series) unless noted
In short: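 In VDR-bla cells, compound-induced beta-lactamase expression is quantified by FRET substrate fluorescence. Treatment lasts 16 h at 37C; substrate develops 2 h at room temperature.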

[10] = biological target: Vitamin D3 receptor (Homo sapiens) (UniProt P11473); test: qHTS assay to identify small molecule antagonists of the vitamin D receptor (VDR) signaling pathway (AID 743223; active = well fitted inhibition curve with a large enough effect in the signal ratio in the repeat runs, not every such curve was filed as active; inconclusive = weak or mixed curves, or effect the other way; inactive = no such curve, though single readings can be large or run the other way; the % refers to the signal ratio; also: potency is read from the fitted curve at half-maximal effect); settings: VDR-UAS-bla HEK293T, beta-lactamase FRET ratio, 16 h; activity change, negative = inhibition: at 61 µM (top of the series) unless noted
In short: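 Agonist 1alpha,25-dihydroxyvitamin D3 (3 nM in well) was added with each compound to VDR-bla cells preincubated 4 h. Cells stood 16 h at 37C, then FRET substrate 2 h at room temperature; fluorescence intensity recorded.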

[11] = qHTS assay for small molecule agonists of the antioxidant response element (ARE) signaling pathway - cell viability counter screen (AID 743203; calls by dose curve; also: nearly all actives have a fitted effect of over 55% in size; also: potency is read from the fitted curve at half-maximal effect)
In short: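 Following 16 hrs of compound treatment at 37C, HepG2 cells with an ARE-controlled beta-lactamase gene were lysed with CellTiter-Glo. Luminescence was read after 30 min at room temperature.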

[12] = qHTS assay for small molecule activators of the heat shock response signaling pathway (AID 743210; active = well fitted activation curve with a large enough effect in the signal ratio in the repeat runs, with a control signal flat, not every such curve was filed as active; inconclusive = weak or mixed curves; the % refers to the signal ratio; also: potency is read from the fitted curve at half-maximal effect); settings: HeLa HSE-bla reporter, beta-lactamase ratio, 5 h; activation: at 62.6 µM (top of the series)
In short: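 Quantitative high-throughput format using an engineered HeLa line in which heat shock response elements drive beta-lactamase; after 5 h with compound, cells received a B/G FRET substrate and fluorescence was read.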

[13] = qHTS assay to identify small molecule agonists of the peroxisome proliferator-activated receptor delta (PPARd) signaling pathway - cell viability counter screen (AID 743211); settings: PPARd-bla HEK293H viability, CellTiter-Glo luminescence, 17 h; activity change, negative = cytotoxicity: at 62.6 µM (top of the series) unless noted; also: % is scaled to controls: 0 for no effect and ±100 for the full control effect; nearly all actives have a fitted effect of over 55% in size
In short: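 Luminescent ATP viability assay (CellTiter-Glo, 30 min RT) in UAS-bla HEK293H cells carrying the PPAR delta reporter construct, 3000 cells/well, after a 17 h compound treatment at 37 C.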

[14] = qHTS assay to identify small molecule antagonists of the farnesoid-X-receptor (FXR) signaling pathway - cell viability counter screen (AID 743221; active = well fitted cell-killing curve with a large enough effect in the repeat runs, not every such curve was filed as active; inconclusive = weak or mixed curves, or effect the other way; inactive = no such curve, though single readings can be large or run the other way; also: % is scaled to controls: 0 for no effect and ±100 for the full control effect; nearly all actives have a fitted effect of over 50% in size); settings: FXR-bla HEK293T viability, CellTiter-Glo luminescence, 16 h; activity change, negative = cytotoxicity: at 62.6 µM (top of the series) unless noted
In short: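 In GeneBLAzer FXR-UAS-bla HEK 293T cells stimulated with 50 uM chenodeoxycholic acid (final), compounds acted for 16 h at 37 C. Viability was assessed afterwards by CellTiter-Glo luminescence.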

[15] = qHTS assay to identify small molecule agonists of the vitamin D receptor (VDR) signaling pathway - cell viability counter screen (AID 743224); also: potency is read from the fitted curve at half-maximal effect; nearly all actives have a fitted effect of over 50% in size
In short: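 Plated VDR-bla cells (4 h, 37C) received compound, incubated 16 h, then LiveBLAzer substrate 2 h RT; CellTiter-Glo added afterwards, luminescence read at 30 min.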
Tags tell the direction and shape of the fitted curve or compound fluorescence and quenching.

Chain of UniProt P11473 (P11473 whole entry, looked up): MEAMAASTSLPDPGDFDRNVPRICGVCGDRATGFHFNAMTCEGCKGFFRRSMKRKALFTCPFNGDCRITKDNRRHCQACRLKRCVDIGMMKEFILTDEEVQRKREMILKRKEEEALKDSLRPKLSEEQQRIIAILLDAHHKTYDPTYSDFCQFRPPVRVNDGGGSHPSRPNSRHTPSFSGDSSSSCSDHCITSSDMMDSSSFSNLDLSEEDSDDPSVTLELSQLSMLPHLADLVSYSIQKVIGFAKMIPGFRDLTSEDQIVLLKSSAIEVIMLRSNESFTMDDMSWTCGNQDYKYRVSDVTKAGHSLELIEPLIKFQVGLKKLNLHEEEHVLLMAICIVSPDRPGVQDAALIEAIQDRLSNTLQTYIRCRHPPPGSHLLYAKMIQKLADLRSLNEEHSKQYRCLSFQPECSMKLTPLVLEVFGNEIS
Chain of UniProt P37231 (P37231 whole entry, looked up): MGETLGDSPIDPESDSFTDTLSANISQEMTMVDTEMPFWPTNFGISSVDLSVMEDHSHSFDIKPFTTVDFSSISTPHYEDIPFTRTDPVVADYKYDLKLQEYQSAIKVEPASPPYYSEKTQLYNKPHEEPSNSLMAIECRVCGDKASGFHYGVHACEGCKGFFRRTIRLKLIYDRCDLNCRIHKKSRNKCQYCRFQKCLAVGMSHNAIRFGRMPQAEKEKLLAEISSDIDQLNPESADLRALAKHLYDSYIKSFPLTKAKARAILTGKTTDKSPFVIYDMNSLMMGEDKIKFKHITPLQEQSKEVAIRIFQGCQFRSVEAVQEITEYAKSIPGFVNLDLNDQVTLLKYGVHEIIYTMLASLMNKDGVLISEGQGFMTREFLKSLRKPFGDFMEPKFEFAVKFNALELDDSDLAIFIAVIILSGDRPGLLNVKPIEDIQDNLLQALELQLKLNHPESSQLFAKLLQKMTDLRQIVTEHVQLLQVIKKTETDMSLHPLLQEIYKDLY
Chain of UniProt Q03181 (Q03181 whole entry, looked up): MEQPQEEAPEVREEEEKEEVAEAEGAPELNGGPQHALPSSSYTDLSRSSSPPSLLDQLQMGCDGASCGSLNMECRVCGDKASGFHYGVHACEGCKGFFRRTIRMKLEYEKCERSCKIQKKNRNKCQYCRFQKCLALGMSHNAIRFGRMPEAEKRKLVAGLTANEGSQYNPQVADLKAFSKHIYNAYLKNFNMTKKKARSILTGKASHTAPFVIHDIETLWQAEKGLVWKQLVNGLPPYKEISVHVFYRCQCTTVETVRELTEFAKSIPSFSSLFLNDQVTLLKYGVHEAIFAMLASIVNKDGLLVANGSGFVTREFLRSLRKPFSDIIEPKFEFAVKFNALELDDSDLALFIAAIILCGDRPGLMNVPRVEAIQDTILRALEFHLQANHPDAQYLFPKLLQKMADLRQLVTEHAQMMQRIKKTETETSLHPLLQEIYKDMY
Chain of UniProt Q96RI1 (Q96RI1 whole entry, looked up): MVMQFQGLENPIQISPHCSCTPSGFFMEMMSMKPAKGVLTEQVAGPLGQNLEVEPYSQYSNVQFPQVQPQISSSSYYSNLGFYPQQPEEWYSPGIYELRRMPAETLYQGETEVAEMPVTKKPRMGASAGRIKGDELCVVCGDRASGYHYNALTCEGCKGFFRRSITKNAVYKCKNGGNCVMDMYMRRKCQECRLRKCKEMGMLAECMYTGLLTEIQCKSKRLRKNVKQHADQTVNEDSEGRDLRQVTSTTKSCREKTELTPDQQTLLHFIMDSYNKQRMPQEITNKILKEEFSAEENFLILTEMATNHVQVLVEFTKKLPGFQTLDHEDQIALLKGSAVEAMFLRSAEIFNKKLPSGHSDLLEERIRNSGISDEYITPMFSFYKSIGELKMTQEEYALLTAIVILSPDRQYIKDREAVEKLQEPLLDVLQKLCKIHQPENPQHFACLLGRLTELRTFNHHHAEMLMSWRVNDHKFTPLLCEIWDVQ

For `C[C@@H](N)[C@@H](O)c1ccccc1`, the Potency [1] was “inactive”, the Potency [2] was “inactive” and the Potency [3] was “inactive”. For the same compound, the Potency [4] was inconclusive [cytotoxic, full curve, poor fit].

With `Nc1ccc(Cl)cc1C(=O)c1ccccc1F` the Potency [1] was inconclusive [inhibitor, partial curve, poor fit], the Potency [2] was “inactive” and the Potency [3] was inconclusive [rising, partial curve]. The Potency [5] was “inactive”, the Potency [4] was inconclusive [rising, partial curve, poor fit] and the viability change, negative = cytotoxic [6] was inconclusive: -16.3% [cytotoxic].

For `COP(=S)(OC)Oc1nc(Cl)c(Cl)cc1Cl`, the Potency [1] was inconclusive [rising, partial curve], the Potency [2] was inconclusive [rising, partial curve, poor fit] and the Potency [4] was inconclusive [cytotoxic, single point]. The Potency [7] was “inactive”, the Potency [8] was “inactive” and the activation [9] was inconclusive: -20.1%. The Potency [10] was inconclusive [activator, full curve].

In the case of `BrCCCCBr`, the ratio activity, negative = inhibition [1] is reported as inconclusive: 4.42%, the Potency [3] is reported as inconclusive [rising, partial curve, poor fit] and the Potency [11] is reported as “inactive”. The Potency [4] was inconclusive [cytotoxic, single point] and the Potency [6] was “inactive”.

For `C=CC(C)=O`, the ratio activity, negative = inhibition [1] was inconclusive: 8.74% and the Potency [3] was “inactive”.

In the case of `COP(=S)(OC)Oc1cc(Cl)c(I)cc1Cl`, the Potency [1] is reported as active: 27.5 µM, the Potency [3] is reported as inconclusive [falling, single point] and the Potency [11] is reported as inconclusive [cytotoxic, partial curve]. For the same compound, the Potency [12] was inconclusive [falling, partial curve, poor fit], the Potency [13] was “inactive” and the Potency [6] was inconclusive [rising, single point]. The Potency [14] was “inactive”, the activity change, negative = inhibition [10] was inconclusive: 32% and the Potency [15] was inconclusive [cytotoxic, partial curve, poor fit].

In the case of `Nc1ccc([N+](=O)[O-])cc1[N+](=O)[O-]`, the ratio activity, negative = inhibition [1] is reported as inconclusive: -10.3%, the Potency [3] is reported as inconclusive [rising, partial curve] and the Potency [13] is reported as “inactive”. For the same compound, the Potency [5] was “inactive” and the Potency [6] was inconclusive [rising, partial curve, poor fit].
